# According to the supplement of paper PMC9446081:
# In all, about 39,000 compounds went through this assay and about 220 (0.56%) showed activity. The list shows a part of the results.
# Tested on: Escherichia coli K-12 BW25113
# Experiment: relative growth (OD600 normalised to plate interquartile mean) (fraction); higher = less growth inhibition, active = 0.2 or less
# Conditions: 50 µM; LB; incubation time: overnight (16-24 h)
# 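Further: static incubation at 37 °C against the wild-type strain, values averaged over two biological replicates.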
row,SMILES,relative growth
1,C[C@H]1CN([C@@H](C)CO)C(=O)c2cc(NS(=O)(=O)c3cn(C)cn3)ccc2O[C@@H]1CN(C)S(=O)(=O)c1cccs1,inactive: 0.979
2,C[C@H](CO)N1C[C@H](C)[C@@H](CN(C)S(=O)(=O)c2cn(C)cn2)Oc2c(NC(=O)C3CCCCC3)cccc2C1=O,inactive: 1.03
3,COC[C@H]1CNN1C(=O)Nc1c(C)noc1C,inactive: 1.02
4,C=CCN1C(=O)[C@@]2(O[C@H](CCOC(=O)NCCCCCC(=O)NO)[C@@H]([Si](C)(C)c3ccc(OC)cc3)[C@@H]2C)c2cc(I)ccc21,inactive: 1.03
5,Cc1ccc(S(=O)(=O)Nc2ccc3c(c2)C(=O)N(C)[C@@H]2CC[C@@H](CC(=O)NCCc4ccncc4)O[C@@H]2CO3)cc1,inactive: 0.993
6,C[C@H]1CCCCO[C@H](CN(C)Cc2ccc(C(=O)O)cc2)[C@@H](C)CN([C@@H](C)CO)C(=O)c2cc(NS(=O)(=O)c3ccc(Cl)cc3)ccc2O1,inactive: 1.01
7,COc1cccc(CNC(=O)C[C@@H]2CC[C@H]3[C@@H](COC[C@H](O)CN3S(=O)(=O)c3ccc(C)cc3)O2)c1,inactive: 0.983
8,COc1ccc(CN(C)C[C@@H]2OCCCC[C@@H](C)Oc3ccc(NC(=O)Nc4ccccc4)cc3C(=O)N([C@H](C)CO)C[C@H]2C)cc1,inactive: 0.998
9,Cc1noc(C)c1NC(=O)N(C)C[C@@H]1OCCCC[C@H](C)Oc2ccc(NS(=O)(=O)c3cccs3)cc2C(=O)N([C@H](C)CO)C[C@@H]1C,inactive: 1.01
10,C[C@H]1CN([C@@H](C)CO)C(=O)c2cc(NC(=O)Cn3cnnn3)ccc2O[C@@H]1CN(C)S(=O)(=O)c1ccccc1,inactive: 1.01
11,CC(=O)O[C@@H]1[C@H](OC(C)=O)N(C)C(=O)N1C,inactive: 0.981
12,O=C(CN1CCOCC1)N[C@@H]1CC[C@@H](CCNC(=O)C2CCC2)O[C@@H]1CO,inactive: 0.986
13,C[C@@H]1CCCCO[C@@H](CN(C)Cc2ccccc2)[C@H](C)CN([C@@H](C)CO)C(=O)c2cc(NC(=O)c3ccccc3)ccc2O1,inactive: 0.995
14,COc1ccc(NC(=O)Nc2ccc3c(c2)CC(=O)N([C@@H](C)CO)C[C@H](C)[C@@H](CN(C)Cc2ccc(Cl)c(Cl)c2)O3)cc1,inactive: 0.989
15,Cc1ccc(S(=O)(=O)N(C)C[C@H]2Oc3ccc(NS(=O)(=O)c4c(C)noc4C)cc3CC(=O)N([C@@H](C)CO)C[C@@H]2C)cc1,inactive: 0.994
16,C[C@H]1CN([C@@H](C)CO)C(=O)Cc2cc(NC(=O)c3ccncc3)ccc2O[C@H]1CN(C)Cc1ccc(-c2ccccc2)cc1,inactive: 0.979
17,C[C@@H]1CN([C@@H](C)CO)C(=O)c2cc(NC(=O)c3ccccc3)ccc2O[C@@H](C)CCCCO[C@@H]1CN(C)C(=O)C1CCCCC1,inactive: 1.02
18,COc1ccc(S(=O)(=O)Nc2ccc3c(c2)C(=O)N([C@@H](C)CO)C[C@H](C)[C@H](CN(C)C(=O)Nc2ccc(C(F)(F)F)cc2)OCCCC[C@@H](C)O3)cc1,inactive: 1.05
19,C[C@@H]1CCCCO[C@@H](CN(C)C(=O)Nc2ccc(C(F)(F)F)cc2)[C@H](C)CN([C@H](C)CO)C(=O)c2cc(NS(=O)(=O)c3ccc(F)cc3)ccc2O1,inactive: 1.04
20,Cc1ccc(S(=O)(=O)N[C@@H]2CC[C@H](CC(=O)N3CCC(Cc4ccccc4)CC3)O[C@H]2CO)cc1,inactive: 0.986

row,SMILES,relative growth
1,C[C@@H]1CN([C@H](C)CO)C(=O)Cc2cc(NS(=O)(=O)c3ccccc3)ccc2O[C@@H]1CN(C)Cc1ccc(Oc2ccccc2)cc1,inactive: 0.996
2,CCN1C[C@@H]2CN(C(=O)c3ccnn3C)C[C@H]2C1=O,inactive: 0.978
3,C=CCC[C@@H](Cc1ccc(F)cc1)C(=O)OC[C@@H](NC(=O)[C@@H](CC=C)CC(=O)N[C@H](CO)Cc1ccccc1)C(C)(C)C,inactive: 1.03
4,COc1cc(-c2cc(=O)c3c(s2)N(c2ccc(OC)c(OC)c2)[C@@H](c2ccc(O)c(OC)c2)CC3=O)ccc1O,inactive: 1.04
5,C[C@@H]1CN([C@H](C)CO)C(=O)Cc2cc(NS(=O)(=O)c3cn(C)cn3)ccc2O[C@@H]1CN(C)Cc1ccncc1,inactive: 1
6,COc1ccc(CN(C)C[C@@H]2Oc3c(NS(C)(=O)=O)cccc3C(=O)N([C@H](C)CO)C[C@@H]2C)cc1,inactive: 1.02
7,CC(C)NC(=O)N[C@@H]1C=C[C@H](CC(=O)O)O[C@@H]1CO,inactive: 0.978
8,C[C@H](CO)N1C[C@H](C)[C@@H](CN(C)C(=O)CCN2CCCCC2)Oc2ncc(C#CCN(C)C)cc2C1=O,inactive: 0.978
9,C[C@@H]1CCCCO[C@H](CN(C)C(=O)Nc2ccc(F)cc2)[C@H](C)CN([C@H](C)CO)C(=O)c2cc(NS(=O)(=O)c3ccc(Cl)cc3)ccc2O1,inactive: 1.01
10,CC(C)NC(=O)Nc1ccc2c(c1)C(=O)N(C)[C@@H]1CC[C@H](CC(=O)NCc3ccc(F)cc3)O[C@@H]1CO2,inactive: 1.02
11,COc1ccc(S(=O)(=O)N(C)C[C@@H]2Oc3ccc(NS(=O)(=O)c4ccc(C)cc4)cc3C(=O)N([C@@H](C)CO)C[C@@H]2C)cc1,inactive: 1.02
12,COc1ccc(CN(C)C[C@@H]2OCCCC[C@H](C)Oc3ccc(NC(=O)Nc4ccc5c(c4)OCO5)cc3C(=O)N([C@H](C)CO)C[C@H]2C)cc1,inactive: 1.02
13,Cc1cc(C(C)(C)C)c(O)c(C(C)(C)C)c1,inactive: 1.02
14,C[C@@H]1CN([C@@H](C)CO)C(=O)c2cccc(NC(=O)C3CC3)c2O[C@@H]1CN(C)C(=O)Nc1ccc2c(c1)OCO2,inactive: 0.989
15,C[C@@H](NC(=O)[C@@H]1CCCC[C@H]1C(=O)O)c1ccccc1.C[C@@H](NC(=O)[C@H]1CCCC[C@H]1C(=O)O)c1ccccc1,inactive: 1.01
16,CCS(=O)(=O)N1C[C@]2(CN(C2)C(=O)Nc2c(noc2C)C)c2c(n(c3cc(ccc23)OC)C)[C@H]1CO,inactive: 1.03
17,COc1ccc([C@@H]([C@H](Cc2ccccc2)OC(C)=O)N2Cc3c(noc3[C@@H](O)c3ccccc3)[C@@H]2Cc2ccccc2)cc1,inactive: 1.01
18,COCCNC(=O)C[C@H]1C[C@@H]2c3cc(NC(=O)Nc4ccc(C(F)(F)F)cc4)ccc3O[C@@H]2[C@@H](CO)O1,inactive: 0.924
19,Cc1ccccc1-c1ccc2c(c1)O[C@H](CN(C)C(=O)Nc1ccc(C(F)(F)F)cc1)[C@H](C)CN([C@H](C)CO)S2(=O)=O,inactive: 0.961
20,C[C@@H]1CN([C@H](C)CO)C(=O)Cc2cc(NS(=O)(=O)c3cn(C)cn3)ccc2O[C@H]1CN(C)Cc1ccc(C(=O)Nc2ccccc2N)cc1,inactive: 0.999

row,SMILES,relative growth
1,COc1ccc(CN(C)C[C@@H]2OCCCC[C@@H](C)Oc3ccc(NC(=O)Nc4ccc(F)cc4)cc3C(=O)N([C@H](C)CO)C[C@@H]2C)cc1,inactive: 0.998
2,COc1ccc2c(c1)OCC(Cc1ccc(OC)c(O)c1)C2=O (stereo not drawn),inactive: 0.839
3,COc1ccc(NC(=O)Nc2ccc3c(c2)C(=O)N([C@H](C)CO)C[C@H](C)[C@H](CN(C)C(=O)c2ccccc2)OCCCC[C@@H](C)O3)cc1,inactive: 0.99
4,C[C@@H]1CN([C@@H](C)CO)C(=O)c2cc(NS(=O)(=O)c3cccs3)ccc2O[C@@H](C)CCCCO[C@@H]1CN(C)Cc1ccc(C(=O)O)cc1,inactive: 1.01
5,CO[C@@H]1CN(C)C(=O)c2ccc(NC(=O)C3CCOCC3)cc2OC[C@H](C)N(Cc2cccnc2)C[C@@H]1C,inactive: 1.03
6,Cc1noc(C)c1S(=O)(=O)N(C)C[C@@H]1Oc2ccc(NS(=O)(=O)c3cccs3)cc2C(=O)N([C@@H](C)CO)C[C@@H]1C,inactive: 1.01
7,Cc1noc(C)c1S(=O)(=O)N(C)C[C@H]1OCCCC[C@@H](C)Oc2ccc(NC(=O)Nc3ccccc3)cc2C(=O)N([C@@H](C)CO)C[C@@H]1C,inactive: 1.01
8,C[C@H](O)[C@H](O)[C@@H](O)[C@@H](O)/C=N/NC(=O)CCCCCCC(=O)NO,inactive: 1.02
9,COc1ccc(S(=O)(=O)N(C)C[C@@H]2Oc3ccc(N(C)C)cc3C(=O)N([C@H](C)CO)C[C@@H]2C)cc1,inactive: 0.986
10,CN(C)Cc1cn(CC[C@H]2CC[C@H](NC(=O)Cc3cccnc3)[C@@H](CO)O2)nn1,inactive: 0.993
11,O=C(C[C@@H]1CC[C@@H](NC(=O)CN2CCOCC2)[C@@H](CO)O1)NC1CCC1,inactive: 1.02
12,C[C@@H]1CN([C@H](C)CO)C(=O)c2cc(NC(=O)NC3CCCCC3)ccc2O[C@@H](C)CCCCO[C@H]1CN(C)S(=O)(=O)c1ccccc1,inactive: 1.02
13,C[C@H]1CN([C@@H](C)CO)C(=O)Cc2cc(NC(=O)c3ccncc3)ccc2O[C@H]1CN(C)S(=O)(=O)c1cn(C)cn1,inactive: 0.971
14,C[C@@H]1CCCCO[C@@H](CN(C)C(=O)Nc2cccc3ccccc23)[C@H](C)CN([C@H](C)CO)C(=O)c2cc(NC(=O)Nc3ccc4c(c3)OCO4)ccc2O1,inactive: 1
15,O=C(C[C@H]1C=C[C@H](NC(=O)c2ccc(F)cc2)[C@@H](CO)O1)NCc1ccncn1,inactive: 0.976
16,Cc1noc(C)c1NC(=O)N(C)C[C@@H]1Oc2c(NC(=O)Nc3ccc(C(F)(F)F)cc3)cccc2C(=O)N([C@@H](C)CO)C[C@H]1C,inactive: 1
17,OC1(Cn2ccnc2)CCNCC1,inactive: 0.99
18,C[C@H](CO)N1C[C@H](C)[C@@H](CN(C)C(=O)Nc2ccccc2)OCCCC[C@H](C)Oc2ccc(NC(=O)Nc3ccc(F)cc3)cc2C1=O,inactive: 1.05
